Assay results taken from the supplement of paper PMC12067230.
This is a noisy data set.
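Note: [psi-pin-] Saccharomyces cerevisiae expressing SupN fusions, induced by 100 µM Cu2SO4, selected 7 d at 30 °C without adenine and uracil, scored by deep sequencing of output versus input.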

Assay: amyloid nucleation score relative to library mode (yeast Sup35 reporter selection) (log enrichment difference); higher = more amyloid nucleation; sequences are the first 22 residues of the Bri2 peptide extended by up to 12 random residues
Details: random library (experiment): 1;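 active = nucleation score significantly above 0 at FDR 0.05; inactive = not significantly above 0 or absent from output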
In the case of EASNCFAIRHFENKFAVETLICLRSLS, the amyloid nucleation score is reported as “inactive”.
Work on EASNCFAIRHFENKFAVETLICCLVLYLWDDFTW yielded an amyloid nucleation score of -0.163.
EASNCFAIRHFENKFAVETLICKCF showed an amyloid nucleation score of 5.88.
For EASNCFAIRHFENKFAVETLICCVPAAIDVLSEG, the amyloid nucleation score was 1.73.
With EASNCFAIRHFENKFAVETLICEIPVQPHSADML the amyloid nucleation score was “inactive”.
With EASNCFAIRHFENKFAVETLICPLRQTFVELFLK the amyloid nucleation score was “inactive”.
With EASNCFAIRHFENKFAVETLICVLDMRVGHRAVM the amyloid nucleation score was “inactive”.
In the case of EASNCFAIRHFENKFAVETLICDIPMLPMNPRIT, the amyloid nucleation score is reported as “inactive”.
For EASNCFAIRHFENKFAVETLICGYSAAG, the amyloid nucleation score was 0.664.
For EASNCFAIRHFENKFAVETLICVVCRHVTSSLRL, the amyloid nucleation score was “inactive”.
In the case of EASNCFAIRHFENKFAVETLICMCRGWLRTTADA, the amyloid nucleation score is reported as “inactive”.
With EASNCFAIRHFENKFAVETLICVGTGCLSRRACE the amyloid nucleation score was “inactive”.
With EASNCFAIRHFENKFAVETLICEVMSR the amyloid nucleation score was “inactive”.
For EASNCFAIRHFENKFAVETLICYAFRPVGGRIRH, the amyloid nucleation score was “inactive”.
With EASNCFAIRHFENKFAVETLICCSKGHCVRCGRG the amyloid nucleation score was “inactive”.
With EASNCFAIRHFENKFAVETLICDPSMAKGKANGT the amyloid nucleation score was “inactive”.
For EASNCFAIRHFENKFAVETLICVDFTMQVCCTDW, the amyloid nucleation score was “inactive”.
In the case of EASNCFAIRHFENKFAVETLICHWHPIRFNSFFW, the amyloid nucleation score is reported as “inactive”.
EASNCFAIRHFENKFAVETLICGKFVCGSGGPGR gave an amyloid nucleation score of 8.4.
For EASNCFAIRHFENKFAVETLICDMATVGWWDGGQ, the amyloid nucleation score was “inactive”.
EASNCFAIRHFENKFAVETLICEAVRAGRDTGME gave an amyloid nucleation score of 2.28.
For EASNCFAIRHFENKFAVETLICDHEMLRGNCAGS, the amyloid nucleation score was “inactive”.
With EASNCFAIRHFENKFAVETLICYWCKMSAELVEW the amyloid nucleation score was “inactive”.
For EASNCFAIRHFENKFAVETLICGRVVQGCGRAGR, the amyloid nucleation score was “inactive”.
With EASNCFAIRHFENKFAVETLICFNARSVAIVVWS the amyloid nucleation score was 0.19.
With EASNCFAIRHFENKFAVETLICNKRLVSYDMLQF the amyloid nucleation score was “inactive”.
For EASNCFAIRHFENKFAVETLICIQEHESSRGISM, the amyloid nucleation score was “inactive”.
For EASNCFAIRHFENKFAVETLICRFKIDSSVYVLL, the amyloid nucleation score was “inactive”.
For EASNCFAIRHFENKFAVETLICHTQVRVVGSVIY, the amyloid nucleation score was 3.18.
With EASNCFAIRHFENKFAVETLICDVHKLHCLTFQL the amyloid nucleation score was 3.88.
EASNCFAIRHFENKFAVETLICVFVRRRRDGREV gave an amyloid nucleation score of -0.273.
With EASNCFAIRHFENKFAVETLICRSTVMIWPRAFD the amyloid nucleation score was “inactive”.
For EASNCFAIRHFENKFAVETLICPASGLWEREMER, the amyloid nucleation score was “inactive”.
With EASNCFAIRHFENKFAVETLICCRIWLADVCSNL the amyloid nucleation score was “inactive”.
With EASNCFAIRHFENKFAVETLICRSWCVFDVTWNF the amyloid nucleation score was “inactive”.
Work on EASNCFAIRHFENKFAVETLICECGTVSSGLA yielded an amyloid nucleation score of 0.706.
Work on EASNCFAIRHFENKFAVETLICGHYLGRWFVVLV yielded an amyloid nucleation score of 0.645.
With EASNCFAIRHFENKFAVETLICIGKFCSRCLRGS the amyloid nucleation score was “inactive”.
In the case of EASNCFAIRHFENKFAVETLICGSLVLMALCV, the amyloid nucleation score is reported as 4.23.
In the case of EASNCFAIRHFENKFAVETLICEAGEPVGEKGPL, the amyloid nucleation score is reported as “inactive”.
For EASNCFAIRHFENKFAVETLICERGLHVPRSFAI, the amyloid nucleation score was “inactive”.
With EASNCFAIRHFENKFAVETLICTLWTQRAYVFRA the amyloid nucleation score was “inactive”.
Work on EASNCFAIRHFENKFAVETLICVQW yielded an amyloid nucleation score of 4.67.
EASNCFAIRHFENKFAVETLICTSLCS gave an amyloid nucleation score of 3.26.
With EASNCFAIRHFENKFAVETLICAGDRLRQGIASL the amyloid nucleation score was “inactive”.
In the case of EASNCFAIRHFENKFAVETLICRVAGATVDARRW, the amyloid nucleation score is reported as “inactive”.
Work on EASNCFAIRHFENKFAVETLICCNVRSEHVWEGS yielded an amyloid nucleation score of 8.74.

Same assay, conditions: random library (experiment): 2
With EASNCFAIRHFENKFAVETLICLFHACLW the amyloid nucleation score was -0.14.
EASNCFAIRHFENKFAVETLICVCRSTW showed an amyloid nucleation score of -0.732.
For EASNCFAIRHFENKFAVETLICIITLLSGWEMCR, the amyloid nucleation score was “inactive”.
EASNCFAIRHFENKFAVETLICVTFKLGW gave an amyloid nucleation score of 3.06.
EASNCFAIRHFENKFAVETLICWTWDVHRSYRRG gave an amyloid nucleation score of 4.2.
With EASNCFAIRHFENKFAVETLICTVIVVPTFTAWY the amyloid nucleation score was “inactive”.
Sequence EASNCFAIRHFENKFAVETLICMLCPVFHWKTAQ has an amyloid nucleation score of 7.89.
In the case of EASNCFAIRHFENKFAVETLICWNMVLTCLDMH, the amyloid nucleation score is reported as “inactive”.
In the case of EASNCFAIRHFENKFAVETLICLGYVSDTVAVCG, the amyloid nucleation score is reported as -0.239.
With EASNCFAIRHFENKFAVETLICLHH the amyloid nucleation score was “inactive”.
EASNCFAIRHFENKFAVETLICDEWSPNEVWSRR showed an amyloid nucleation score of -0.223.
With EASNCFAIRHFENKFAVETLICLGMLMWSINRCL the amyloid nucleation score was “inactive”.
With EASNCFAIRHFENKFAVETLICWVTSLPY the amyloid nucleation score was “inactive”.
EASNCFAIRHFENKFAVETLICCSSIMVGKGSLV showed an amyloid nucleation score of 7.3.
Sequence EASNCFAIRHFENKFAVETLICCRCEYVSVNVDN has an amyloid nucleation score of 6.99.
For EASNCFAIRHFENKFAVETLICRRMGHSVPSSRD, the amyloid nucleation score was “inactive”.
For EASNCFAIRHFENKFAVETLICWCCCFLSAFVFL, the amyloid nucleation score was “inactive”.
With EASNCFAIRHFENKFAVETLICTNYRLSKDRFRC the amyloid nucleation score was 3.54.
EASNCFAIRHFENKFAVETLICRKVIESNVVYES showed an amyloid nucleation score of 1.22.
Work on EASNCFAIRHFENKFAVETLICCCAKDKEHLEG yielded an amyloid nucleation score of 7.67.
Sequence EASNCFAIRHFENKFAVETLICLIGGSFKDRPFR has an amyloid nucleation score of 7.28.
For EASNCFAIRHFENKFAVETLICFTTSSYYWSLQV, the amyloid nucleation score was “inactive”.
For EASNCFAIRHFENKFAVETLICMIIVLK, the amyloid nucleation score was “inactive”.
In the case of EASNCFAIRHFENKFAVETLICFTHSRTI, the amyloid nucleation score is reported as 2.18.
For EASNCFAIRHFENKFAVETLICMPRKVSNKDID, the amyloid nucleation score was “inactive”.
With EASNCFAIRHFENKFAVETLICPVNLWYSEYGGM the amyloid nucleation score was 7.37.
With EASNCFAIRHFENKFAVETLICILWFVNCIFVLE the amyloid nucleation score was “inactive”.

Same assay, conditions: random library (experiment): 3
With EASNCFAIRHFENKFAVETLICCIQCVSSTWLRL the amyloid nucleation score was “inactive”.
For EASNCFAIRHFENKFAVETLICVKSFQQLVIEIV, the amyloid nucleation score was “inactive”.
Sequence EASNCFAIRHFENKFAVETLICQNWANDVDRRC has an amyloid nucleation score of 1.42.
For EASNCFAIRHFENKFAVETLICPTKYP, the amyloid nucleation score was “inactive”.
For EASNCFAIRHFENKFAVETLICVDDRR, the amyloid nucleation score was “inactive”.
For EASNCFAIRHFENKFAVETLICLAKVRLQAPGMR, the amyloid nucleation score was 4.06.
For EASNCFAIRHFENKFAVETLICLSFAYASWPSRV, the amyloid nucleation score was 5.38.
EASNCFAIRHFENKFAVETLICRESVVSGLRMLR showed an amyloid nucleation score of 0.505.
For EASNCFAIRHFENKFAVETLICLQMCISVSAMCG, the amyloid nucleation score was “inactive”.
With EASNCFAIRHFENKFAVETLICAAWRFTPKGEWV the amyloid nucleation score was “inactive”.
For EASNCFAIRHFENKFAVETLICVTEVILLCKRPT, the amyloid nucleation score was “inactive”.
In the case of EASNCFAIRHFENKFAVETLICWMAVAALTRGVE, the amyloid nucleation score is reported as “inactive”.
